Numbering of substitutions follows the chain as printed. Recombinant human monoclonal antibodies (heavy:light variable regions). ELISA EC50 on the named antigen, from 10 µg/ml down; lower = stronger. No active / inactive call.
B1: C927 (protein)
chain 1: QVQLVESGGGVVQPGRSLRLSCVASGFTFSYFDMHWVRQAPGKGLEWVALISHDGSTTFYGDSARGRFTISRDNSRNTLDLQMNSLRPEDTAVYFCAKPVDAAMFDFWGQGTLVTVS
chain 2: SYELTQPPSVSVAPGKTARITCGGNNIGSKSVHWYQQRPGQAPVLVIYYDSDRPSGIPERFSGSNSGNTATLTISRVEAGDEADFYCQVWDRSTNHLVVFGGGTQLTVL
B2: C928 (protein)
chain 1: QVQLVESGGGVVQPGRSLRLSCAASGFTFSFFDMHWVRQAPGKGLEWVADISYDGSNQYYGDSVKGRFTISRDNSKSTLYLQMNSLRAEDTAVYYCAKPVDTAMFDSWGQGTLVTVSS
chain 2: SYELTQPPSVSVAPGETARITCGGNNIGHKSVHWYQQQPGQAPVLVIYYDSERPSGIPERFSGSNSGNTATLTISRVEAGDEADYHCQVWDGGNDHLVIFGGGTKLTVL
B3: C926 (protein)
chain 1: QVQLVESGGGVVQPGRSLRLSCAASGFGLITYSMHWVRQAPGKGLEWVGLISFDGNTTYYADSVRGRFTISRDNLANILYLQMNSLRPDDTALYYCARDKRGVIRGLLNFWGQGSLVTVSS
chain 2: DIVMTQSPDSLAVSLGERATINCKSSQSLLPSSNSNNYLAWYQQKSGQPPNLLIYWASTRESGVPDRFSGSGSETDFSLTISNLQAEDVAVYYCQQYYNTPHTFGGGTKVEI
B4: C849 (protein)
chain 1: QVQLVQSGAEVKKPGASVKVSCRASGYTFTDHYIHWVRQAPGQGLEWMGWINPNSGDTNYPQKFQGRVTMARDTSISTAHMELRRLKSDDTAVYYCARTSSPHSSSTGDFDSWGQGTLVTVSS
chain 2: SYELTQPPSVSVAPGKTARITCGGDDIGSKSVHWYQQKSGQAPVLVIHDDSDRPSGIPERFSGSNSGNTATLTISRVEAGDEADYYCQVWDFTGDHPGWVFGGGTKLTVL
B5: C932 (protein)
chain 1: QVQLVESGGSVVQPGKSLRLSCAGSGFAFSTYGMHWVRQAPGKGLEWVAVISSDGGNKYYADSVKGRFTISRDNYENTLYLQMNSLGAEDTAVYYCAKVALRGVFISLYYGMDVWGQGTTVTVSS
chain 2: SYELTQPPSVSVTPGQTASITCSGDKLGDKYACWFLQKPGQSPLLVIYQDTKRPSGIPDRLSGSKSGNTATLTISGTQAMDEADYYCQTWDSSAVVFGGGTKLTV
B6: C848 (protein)
chain 1: QVQLQESGPGLVKPSQTLSLTCTVSGGSISSGDYYWSWIRQPPGKGLEWIGYIYYTGITYYRPSLKSRVTISVDTSKNQFSLKLSSVTAADTAVFYCARVVRLWPRYFDSWGQGTLVTVSS
chain 2: QSALTQPPSASGSPGQSVTISCTGTSSDVGTYDYVSWYQQHPGKAPKVIIYEVTKRPSGVPDRFSGSKSGNTASLTVSGLQAEDEAHYYCSTYAGSDNLEFGGGTKLTVL
B7: C929 (protein)
chain 1: EVQLVESGGGLIQPGGSLRLSCAASGFTVSSNYMTWVRQAPGKGLEWVSVIYSGGTTYYADSVKGRFTISRDNSKNTLYLQMNSLRAEDTAVYYCARDLVVWGMDVWGQGTTVTVSS
chain 2: DIQLTQSPSFLSASVGDRVTITCRASQGISSYLAWYQQKPGKAPKLLIYAASTLQSGVPSRFSGSGSGTEFTLTISSLQPEDFATYYCQLLNSYPYTFGQGTKLEIK
B8: C930 (protein)
chain 1: B7 chain 1 with I12F, S21A, F27I, T35S, A40P, S53A, T56S, Y58F, F67L, M82I
chain 2: B7 chain 2 with L90Q, S93T
B9: C924 (protein)
chain 1: QVQLVESGGGVVQPGRSLRLSCAASGFTFSSYGMHWVRQAPGKGLEWVAVISDDGSNKYYADSVKGRFTISRDNSKNTLYLQMNSLRAEDTAVYYCAKSWWLSENWFDPWGQGTLVTVSS
chain 2: EIVMTQSPATLSVSPGERATLSCRASQSVSSNLAWYQQKPGQAPRLLIYGASTRATGIPARFSGTGSGTEFTLTISSLQSEDFAVYYCQQYNNWPLTFGGGTKVEIK
B10: C925 (protein)
chain 1: B9 chain 1 with S31N, M34L, I51T, S56N, N57R, N74D, S85N, A88T
chain 2: B9 chain 2 with S30R, K39R, S52F, G64V, T65S, S76D

Target: SARS-CoV-2 Wuhan-Hu-1 spike receptor-binding domain
Test: ELISA binding EC50; higher = weaker binding; ELISA of recombinant human antibody on coated antigen, from 10 µg/ml in fourfold dilutions; four-parameter fit.

Binder | ELISA binding EC50
B1 | 3.77 ng/mL
B2 | 4.14 ng/mL
B3 | 4.72 ng/mL
B4 | 3.64 ng/mL
B5 | 3.57 ng/mL
B6 | 2.23 ng/mL
B7 | 2.07 ng/mL
B8 | 1.24 ng/mL
B9 | 2.5 ng/mL
B10 | 2.26 ng/mL
